Measured values published in PubChem BioAssay AID463173 (ICCB-Longwood Screening Facility, Harvard Medical School, 2010).
Hit rate of the full screen: of about 52,000 compounds, about 4,300 (8.3%) were called active. Cut-off read from the data, not from the text of the source: active = survival mostly below about 52% (no sharp cut-off); inactive = mostly above about 56%. The list shows a part of the results.

These compounds were tested on DeltatarO mutant (assay: growth inhibition of S. aureus wild type versus tarO mutant, primary screen, teichoic acid synthesis inhibitors, RN4220, OD600 (AID 463173)). Conditions: OD600, 18 h, active compounds read low, screened at 18.75 µg/mL (by protocol).

Compound | survival
Cc1cc(C)cc(-n2c(SCC(=O)N3CCC(C)CC3)nc3c([nH]c4ccccc43)c2=O)c1 | active: 17%
COc1cccc(C(=O)N2CCCCC2CCN2CCCCC2)c1 (configuration not stated) | inactive: 83%
O=C(Cn1nc(-c2ccc(Cl)cc2)c2ccccc2c1=O)Nc1cccc(Br)c1 | active: 28%
CCCCC(=O)Nc1c(C(=O)N2CCN(c3ccccc3F)CC2)oc2ccccc12 | inactive: 79%
Cc1nc(C)c(CC(=O)O)c(=O)[nH]1 | inactive: 75%
COc1ccc(CNC(=O)C2CCN(c3nnc(-n4c(C)ccc4C)s3)CC2)c(OC)c1 | inactive: 87%
Cc1nc2ccc(S(=O)(=O)N(C)CC(=O)Nc3ccc(C(C)C)cc3)cc2s1 | inactive: 113%
Cc1ccccc1Cn1c(COc2ccc(Cl)cc2)nc2ccccc21 | inactive: 114%
O=C(Nc1cccc(F)c1)C1CCCN(S(=O)(=O)c2cccc3cccnc23)C1 (configuration not stated) | inactive: 70%
CSc1ccccc1NC(=O)CSc1ncccn1 | inactive: 108%
COc1ccc(-c2nnc(SC(C)C)n2-c2ccccc2)cc1 | inactive: 112%
CC1CCN(C(c2ccccc2)c2sc3nc(-c4ccco4)nn3c2O)CC1 (configuration not stated) | inactive: 72%
O=C(CSc1nc(-c2ccccc2)cn1-c1ccccc1F)Nc1ccc(F)cc1 | inactive: 81%
COc1ccc(CNS(=O)(=O)c2cc3c(cc2Cl)N(C(C)=O)CCO3)cc1 | inactive: 74%
Cc1ccc(Nc2cc(C(=O)NCCc3ccccc3)c3ccccc3n2)c(C)c1 | inactive: 76%
COc1cc(NC(=O)CN2CCN(S(=O)(=O)c3ccc(Br)cc3)CC2)cc(OC)c1 | inactive: 99%
O=C(Cn1c(C(=O)NCC2CCCO2)cc2sccc21)c1ccccc1 (configuration not stated) | inactive: 103%
COc1ccc(NC(=O)CSc2nc(-c3cc(OC)c(OC)c(OC)c3)[nH]c2-c2ccc(F)cc2)cc1 | inactive: 56%
COc1ccc(-c2nc(SCC(=O)NC(C)CCc3ccccc3)n[nH]2)cc1 (configuration not stated) | active: 17%
COc1ccc(S(=O)(=O)c2c(Nc3cccc(C)c3C)sc(C(=O)c3ccccc3)c2N)cc1 | inactive: 75%
CCOC(=O)c1c(C)oc2nc(C)nc(NCCc3ccc(OCC)c(OCC)c3)c12 | inactive: 83%
COC(=O)c1ccc(NC(=O)CSc2cn(CC(=O)N3CCCCC3)c3ccccc23)cc1 | inactive: 71%
COc1ccc(N2CCN(c3ncnc4c3cnn4-c3ccc(F)cc3)CC2)cc1 | inactive: 87%

Compound | survival
CCN(CC)C1=C(C(=O)c2ccccc2)NS(=O)(=O)c2ccccc21 | inactive: 76%
CC1CCN(S(=O)(=O)c2ccc3c(c2)c(=O)c(C(=O)N2CCN(c4cccc(Cl)c4)CC2)cn3C)CC1 | inactive: 89%
O=C(CN(Cc1ccccc1)C(=O)Cn1nnc(-c2ccc(F)cc2)n1)NC1CCCC1 | inactive: 70%
O=C1c2ccccc2-c2onc3c(Oc4ccccc4)cc(O)c1c23 | inactive: 96%
COc1ccc(NC(=O)CN2CCN(CC(=O)Nc3ccccc3F)CC2)c(OC)c1 | inactive: 86%
O=c1c2cc3c(cc2nc2sc(Nc4ccccc4)nn12)OCO3 | inactive: 54%
O=C(CS(=O)(=O)c1cccc2nsnc12)N1CCN(c2ccccc2F)CC1 | inactive: 85%
O=C(Nc1ccc(Cl)cc1)C1CCC(CNS(=O)(=O)c2ccc(Br)s2)CC1 (configuration not stated) | inactive: 86%
Cc1cc(NC(=O)c2ccc3c(c2)N(Cc2cccc(Cl)c2)C(=O)c2ccccc2S3(=O)=O)ccc1Br | inactive: 90%
COc1ccccc1CNc1nc2ccc(C)cc2n2nnnc12 | active: 17%
Cc1nn(-c2ccccc2)c(OC(=O)c2ccccc2Br)c1S(=O)(=O)c1ccccc1 | inactive: 83%
O=C1CC(c2c(Cl)cccc2Cl)c2c(ccc3ccccc23)N1 (configuration not stated) | inactive: 73%
CC1=C(C(=O)Nc2ccccc2Cl)C(c2cccc(O)c2)n2ncnc2N1 (configuration not stated) | inactive: 124%
COc1ccc(NC(=O)C2=CC(c3ccco3)=NS(=O)(=O)N2C)cc1OC | inactive: 92%
CCc1ccccc1NC(=O)CCCSc1nc(-c2ccco2)cc(C(F)(F)F)n1 | inactive: 63%
CCN(c1ccccc1)S(=O)(=O)c1nnc(NC(=O)c2ccccc2OC)s1 | inactive: 47%
CCN(CC)c1ccc(CNCCCSc2nnnn2C)cc1 | inactive: 88%
COc1ccc(CNC(=O)c2cc(Nc3ccccc3C)nc3ccccc23)cc1 | inactive: 85%
COCCNc1nc2c(c(=O)n(C)c(=O)n2C)n1Cc1c(F)cccc1Cl | inactive: 57%
Cc1oc2ncn(C)c(=O)c2c1C(=O)N1CCN(c2cccc(C(F)(F)F)c2)CC1 | inactive: 71%
COc1ccc(Cl)cc1NC(=O)CSc1cn(CC(=O)N2CCCCC2)c2ccccc12 | inactive: 61%
CCOc1ccc(CN2C(=O)c3ccccc3Sc3ccc(C(=O)NCc4ccco4)cc32)cc1 | inactive: 82%
Cc1oc(-c2cccc(Cl)c2)nc1CN1CCC(C(=O)NC(C)c2ccccc2)CC1 (configuration not stated) | inactive: 85%

Compound | survival
COc1cc(C2C(=O)N(C3CCCCC3)CC(=O)N2CCc2ccccc2)ccc1OC(C)C (configuration not stated) | inactive: 80%
CCCCN(C)CCCNC(=O)C1CCN(S(=O)(=O)CCC)CC1 | inactive: 84%
O=C(Nc1ccccc1C(F)(F)F)c1ncoc1-c1ccco1 | inactive: 86%
COc1ccc(-c2cc(C(F)(F)F)nc(SCCC(=O)Nc3ccc(NC(C)=O)cc3)n2)cc1 | inactive: 61%
CN(C(=O)Cn1nnc2ccccc2c1=O)C1CCCCC1 | inactive: 94%
COC(=O)C(C)Sc1ccc2nnc(CCNS(=O)(=O)c3ccc(C)cc3)n2n1 (configuration not stated) | inactive: 56%
COc1ccc2oc(=O)c(C(=O)Nc3ccc(O)cc3)cc2c1 | inactive: 98%
Cc1ncc(CO)c2c1Oc1nc(-c3ccccc3Cl)nc(SCc3ccccc3F)c1C2 | inactive: 72%
COCCCNC(=O)Cn1cnc2sc(C)c(S(=O)(=O)N3CCC(C)CC3)c2c1=O | inactive: 69%
CC(C)NC(=O)c1ccc(Cn2c(SCC(N)=O)nc3ccccc3c2=O)cc1 | inactive: 93%
Cc1ccc(CCNC(=O)c2ccc3nc(N4CCC(C)CC4)sc3c2)cc1 | inactive: 91%
CCOc1ccc(C2CC(=O)Nc3nc(SCc4ccccc4C)[nH]c(=O)c32)cc1OC (configuration not stated) | inactive: 103%
O=c1n(Cc2ccccc2Cl)c2ccccc2c2nc(-c3ccccc3)nn12 | inactive: 78%
CCCn1cnc2scc(-c3ccccc3)c2c1=O | inactive: 92%
Cc1nn2c(=O)cc(COC(=O)c3ccc(NC(=O)COc4ccc(C)c(C)c4)cc3)nc2s1 | inactive: 116%
O=C(NC1CC(=O)N(c2ccc(F)cc2)C1)c1ccco1 (configuration not stated) | inactive: 95%
COc1ccccc1C1CC(=O)NC(C)=C1C(=O)OC1CCCCCC1 (configuration not stated) | inactive: 86%
N#Cc1cccc(C(c2nnnn2Cc2ccccc2)N2CCCC2)c1 (configuration not stated) | inactive: 103%
O=C(O)C1CCN(C(=O)c2ccc(-c3ccccc3)cc2)CC1 | inactive: 108%
CC(=O)Nc1nc(-c2cccs2)nc2c1c(=O)oc1ccccc12 | inactive: 92%
O=C(NCc1cccnc1)c1nn(-c2ccc(Cl)cc2)nc1CO | inactive: 93%
COc1cc(Cl)c(C)cc1Nc1nc2ccccc2c2nnc(C)n12 | inactive: 124%
COc1ccc2nc(N(Cc3cccnc3)C(C)=O)sc2c1 | inactive: 89%

Compound | survival
COc1ccc(C2CC(=O)N3CN(C4CCCCC4)CSC3=C2C#N)c(OC)c1 (configuration not stated) | inactive: 91%
CC1=C(C)C/S(=N\S(=O)(=O)c2ccc(Cl)cc2)N(S(=O)(=O)c2ccc(Cl)cc2)C1 (configuration not stated) | inactive: 64%
COC(=O)c1ccc(NC(=O)CSc2ccc(-c3sc(-c4ccccc4)nc3C)nn2)cc1 | active: 56%
CCC(Oc1ccccc1-c1nnc(-c2ccccc2)o1)C(=O)Nc1ccc(C(C)=O)cc1 (configuration not stated) | inactive: 112%
COC(=O)c1cc2oc(C)cc2n1Cc1ccc(Br)cc1F | inactive: 75%
CCc1ccc(-n2c(=O)c3cccnc3n2CC(=O)NCc2ccccc2)cc1 | inactive: 90%
CCc1ccc(-n2c(=O)c3c4c(sc3n(Cc3ccccc3C#N)c2=O)CCC4)cc1 | inactive: 146%
O=C1CC(NCC2CCCCC2)C(=O)N1c1ccccc1 (configuration not stated) | inactive: 92%
COc1ccc(S(=O)(=O)NCCc2nnc3ccc(SCC(=O)Nc4ccccc4C)nn23)cc1 | inactive: 121%
COC(=O)c1c(C)oc2ccc(N(C(=O)c3ccncc3)S(=O)(=O)c3ccc(OC)cc3)cc12 | inactive: 50%
COc1cccc(OC)c1C(=O)N1CCNCC1 | inactive: 92%
O=C(Nc1cccc(C(F)(F)F)c1)c1ccc2c(c1)nnn2C1CCCC1 | inactive: 82%
Cc1ccccc1NC(=O)CN1CCCC1 | inactive: 70%
Cc1cccc(N2CCN(S(=O)(=O)c3c(C)nc4scc(C)n4c3=O)CC2)c1C | inactive: 130%
COc1ccccc1NC(=O)c1ccc(COc2ccc(C)c(C)c2)o1 | active: 1%
CCCCn1c(=O)c2oc3ccccc3c2n(CC(=O)Nc2ccc(CC)cc2)c1=O | inactive: 67%
Cn1cc(CN(C(=O)Nc2ccccc2)C2CCCCC2)c2ccccc21 | active: -14%
COc1ccc(-c2nc3sc(CCNC(=O)c4ccco4)c(C)n3n2)cc1 | inactive: 99%
CCS(=O)(=O)Nc1ccc(-c2cn3ccsc3n2)cc1 | active: 17%
Cn1c(Cn2cnc3ccccc32)nnc1SCC(=O)CC(=O)Nc1ccccc1 | inactive: 63%
CN(C)c1ccc(CNS(=O)(=O)c2ccc(-c3cc(C(F)(F)F)on3)s2)cc1 | inactive: 60%
COc1cc2c(cc1OC)CN(C(=O)Nc1ccccc1)CC2 | inactive: 63%
Cc1c(C(=O)NCc2cccc(Br)c2)oc2ccc3c(c12)C(=O)CC(C)(C)O3 | inactive: 61%
